Test results reported in the RNAGym collection of RNA variant scans (doi:10.7554/elife.90254).
Read counts are not given, so values of variants with three or more changes are uncertain.

B1: LINE1-full (parent)
chain: UACGUAGGUGGUUUUCCCCUGAUAGUGCUAAGGGGGCCUGGAAGUUUGGACUGGGCAGAGCUCAACACAGCGUGGCAAAGUGGCUGUGGCUAGACUGCCUCUCUGGAUUCCUCGUCACUCAGCAGGGCAUCUCUGAGAGAAAUGCC

Variants of: B1
Assay: self-cleavage, relative activity (ratio to wild type); higher = more cleavage; in vitro, sequencing; the parent is a self-cleaving ribozyme

For UACGUAGGUGGUUUACCCCUGAUAGUGCUAAGGGGGCCUGGAAGUUUGGACUGGGCAGAGCUCAACACAGCGUGGCAAGGUGGCUGUGGCUAGACUGCCUCUCUGGAUUCCUCGUCACUCAGCAGGGCAUCCCUGAGAGAAACGCC, which self-cleavage is on record?
The self-cleavage was 1.97.

With UACGUAGGUGGUUUACCCCUGAUAGUGCUAAGGGGGCCUGGAAGUUUGGACUGGGCAGAGCUCAACACAGCGUGGCAAAGUGGCUGUGGCUCGACUGCCUCUCUGGAUUCCUCGUCACUCAGCAGGGCAUCUCCGAGAGAAAUGCC as the variant, how does the self-cleavage read?
The self-cleavage was 0.11.

Which self-cleavage does the source give for UACGUAGGUGGUUUACCCCUGAUAGUGCUAAGGGGGCCUGGAAGUUUGGACUGGGCAGAGCUCAACACAGCGUGGCAAAGUGGCUGUGGCUGGACUGCCUCUCUGGAUUCCUCGUCACACAGCAGGGCAUCUCUGAGAGAAAUGCC here?
Its self-cleavage is 0.2.

With UACGUAGGUGGUUUACCCCUGAUAGUGCUAAGGGGGCCUGGAAGUUUGGACUGGGCAGAGCUCAACACAGCGUGGCAAAGUGGCUGUGGCUAGGCUGCCUCUCUGGAUUCCUCGUCACUCAGCAGGGCACCUCUGAGAGAAAUGCC as the variant, how does the self-cleavage read?
Its self-cleavage is 0.4.

Which self-cleavage does the source give for UACGUAGGUGGUUUACCCCUGAUAGUGCUAAGGGGGCCUGGAAGUUUGGACUGGGCAGAGCUCAACACAGCGUGGCAAAGUGGCUGUGGCUAGACUGCCUCUCUGGAUUCCUCGUCACUCGGCAGGGCGUCUCUGAGAGAAAUGCC here?
Its self-cleavage is 0.

For UACGUAGGUGGUUUACCCCUGAUAGUGCUAAGGGGGCCUGGAAGUUUGGACUGGGCAGAGCUCAACACAGCGUGGCAAAGUGGCUGUGGCUAGACUGCCUCUCUGGAUUCCUCGUCACUCAGCAGGGCUUCCCUGAGAGAAAUGCC, which self-cleavage is on record?
Its self-cleavage is 0.69.

For UACGUAGGUGGUUUACCCCUGAUAGUGCUAAGGGGGCCUGGAAGUUUGGACUGGGCAGAGCUCAACACAGCGUGGCAAAGUGGCUGUGGCUAGACUGCCUCUCUGGAUUCCUCGUCACUCAGCAGGGCAUCUCUGAGGGAGAUGCC, which self-cleavage is on record?
Its self-cleavage is 2.1.

For UACGUAGGUGGUUUAACCCUGAUAGUGCUAAGGGGGCCUGGAAGUUUGGACUGGGCAGAGCUCAACACAGCGUGGCAAAGUGGCUGUGGCUAGGCUGCCUCUCUGGAUUCCUCGUCACUCAGCAGGGCAUCUCUGAGAGAGAUGCC, which self-cleavage is on record?
Its self-cleavage is 0.

For UACGUAGGUGGUUUACGCCUGAUAGUGCUAAGGGGGCCUGGAAGUAUGGACUGGGCAGAGCUCAACACAGCGUGGCAAAGUGGCUGUGGCUAGACUGCCUCUCUGGAUUCCUCGUCACUCAGCGGGGCAUCUCUGAGAGAAAUGCC, which self-cleavage is on record?
The self-cleavage was 0.39.

With UACGUAGGUGGUUUACUCCUGAUAGUGCUAAGGGGGCCUGGAAGUUUGGACUGGGCAGAGCUCAACACAGCGUGGCAAAGUGGCUGUGGCUAGACUGCCUCUCUGGAUUCCUCGUCACUCAGCAGGGCAUCCCUGAGAGAAAUGCC as the variant, how does the self-cleavage read?
The self-cleavage was 1.24.

For UACGUAGGUGGUUUACCUCUGAUAGUGCUAAGGGGGCCUGGAAGUUUGGACUGGGCAGAGCUCAACACAGCGUGGCAAAGUGGCUGUGGCUAGACUGCCUCUCCGGAUUCCUCGUCACUCAGCAGGGCAUCUCUGGGAGAGAUGCC, which self-cleavage is on record?
The self-cleavage was 0.

With UACGUAGGUGGUUUACCCUUGAUAGUGCUAAGGGGGCCCGGAAGUUUGGACUGGGCAGAGCUCAACGCAGCGUGGCUAAGUGGCUGUGGCUAGACUGCCUCUCUGGAUUCCUCGUCACACAGCAGGGCAUCUCUGAGUGAAAUGCC as the variant, how does the self-cleavage read?
The self-cleavage was 0.12.

With UACGUAGGUGGUUUACCCCUGAUAGUGCUAAGGGGGCCUGGAAGUUUGGACUGGGAAGAGGGCAACACAGCGUGGCAAAGUGGCUGUGGCUAUACUGCCUCUCUGGAUUCCUCGUCACUCAGCAGGGCAUCUCUGAGAGGAAUGCC as the variant, how does the self-cleavage read?
The self-cleavage was 0.07.

For UACGUAGGUGGUUUACCCCUGAUAGUGCUAAGGGGGCCUGGAAGUUUGGACUGGGUAGAACUCAACACAGCGUGGCAAAGUGGCUGUGGCUAGACUGCCUCUCUGGAUUCCUCGUCACUCAGCAGGGCAUCUCUGAGAGAAAUGCC, which self-cleavage is on record?
Its self-cleavage is 0.08.

Which self-cleavage does the source give for UACGUAGGUGGUUUACCCCUGAUAGUGCUAAGGGGGCCUGGAAGUUUGGACUGGGCAGAGCUCAACACAGAGUGGCAAGGUGGCUGUGGCUAGACUUCCUCUCUGGAUUCCUCGUCACUCAGCAGGGCAUCUCUGAGAGAAAUGCC here?
Its self-cleavage is 0.07.

Which self-cleavage does the source give for UACGUAGGUGGUUUACCCCUAAUAGUGCUAAGGGGGCCUGGAAGUUUGGACUGGGCAGACCUCAACACAGCGUGGCAAAGUGGCUGUGGCUAGACUGCCUCUCUGGAUUCCUCGUCACUCAGCAGGGCAUCCCUGAGAGAAAAGCC here?
Its self-cleavage is 0.

With UACGUAGGUGGUUUACCCCUGAUACUGCUAAGGGGGCCUGGAAGUUUGGACUGGGCAGAGCUCAACACAGCGUGGCAAAGUGGCUGUGGCUAGACUGCCUCACUGGAUUCCUCGUCACUCAGCAGGGCAUCUCUGAGAGAAAUGCC as the variant, how does the self-cleavage read?
Its self-cleavage is 1.45.

With UACGUAGGUGGUUUACCCCUGAUAGUGCUAAGAGGGCCGGGAAGUUUGGACUGGGCAGAGCUCAACACAGCGUGGCAAAGUGGCUGUGGCUAGACUGCCUCUCUGGAUUCCUCGUCACUCAGCAGGGCAUCUCUGAGAGAAAUGCC as the variant, how does the self-cleavage read?
The self-cleavage was 0.48.

With UACGUAGGUGGUUUACCCCUGAUAGUGCUAAGUGGGCCUGGAAGUUUGGACUGGGCAGAGCUCAACACAGCGUGGCAAAGUGUCUGUGGCUAGACUGCCUCUCUGGAUUCCUCGUCACUCAGCAGGGCACCUCUGAGAGAAAUGCC as the variant, how does the self-cleavage read?
Its self-cleavage is 0.85.

Which self-cleavage does the source give for UACGUAGGUGGUUUACCCCUGAUAGUGCUAAGGAGGCCUGGAAGUUUGGACUGGGCAGAGCUCAACACAGCGAGGCAAAGUGGCUGUGGCUAGACUGCCUCUCUGGACUCCUCGUCACCCAGCAGGGCAUCUCUGAGAGAAAUGCC here?
The self-cleavage was 1.87.
